{"source": "PubChem BioAssay AID938", "about": "(National Center for Advancing Translational Sciences (NCATS), 2007)", "note": "Hit rate of the full screen: of about 73,000 compounds, about 1,800 (2.5%) were called active. Inconclusive means that the source gave no clear call. Such entries were picked first, then a sample of the others. Calls come from the whole dose curve; as a rule, active = well fitted activation curve with a large enough effect; inconclusive = small, poorly fitted or top-dose-only effect; inactive = no such curve, though single readings can be large or run the other way. No potency is given beside an inconclusive call; the fits are too rough. Potency is the fitted concentration of half-maximal effect; tags give direction and shape of the fitted curve.", "data": [{"experiment": "qHTS Assay for Agonists of the Thyroid Stimulating Hormone Receptor: Activators of Intracellular cAMP Concentrations in Parental HEK 293; note: nearly all actives have a fitted effect of over 55% in size; for activation: % of control where 0% means no effect", "conditions": "parental HEK293 CNG cAMP sensor, membrane potential fluorescence; activation: at 57.1 µM (top of the series) unless noted", "how_it_was_run": "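Parental HEK 293 cells stably expressing a cAMP-gated CNG channel were loaded with membrane potential dye containing 100 uM RO 20-1724 for 60 min. Compound added for 30 min; depolarization read as fluorescence intensity at 590 nm.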", "values": [{"smiles": "CC1CN(c2nc3ccccn3c(=O)c2/C=C(\\C#N)S(=O)(=O)c2ccccc2)CC(C)O1", "note": "(stereo not given)", "activation": "inactive: -16.5%"}, {"smiles": "Cn1c(COc2ccccc2)nnc1SCC(=O)Nc1ccc2c(c1)OCO2", "Potency": "inconclusive [activator, single point]"}, {"smiles": "CCOc1ccc2nc(NC(=O)CSC3=NCCS3)sc2c1", "Potency": "inconclusive [activator, single point]"}, {"smiles": "COC(=O)c1sc(NC(=O)COc2ccccc2)nc1C", "Potency": "inconclusive [activator, partial curve]"}, {"smiles": "O=C1c2ccccc2C(Nc2ccc3c(c2)OCCO3)N1c1ccc(Cl)cn1", "note": "(stereo not given)", "Potency": "inconclusive [activator, partial curve, poor fit]"}, {"smiles": "O=C(O)C1Cc2c([nH]c3ccccc23)C(c2ccc3c(c2)OCO3)N1", "note": "(stereo not given)", "activation": "inactive: -7.68%"}, {"smiles": "COC(=O)Cc1c(C)nc2nc(NCc3c(F)cccc3Cl)[nH]n2c1=O", "Potency": "inconclusive [activator, single point]"}, {"smiles": "COc1ccc(S(=O)(=O)N(C)CC(=O)O)cc1C", "activation": "inactive: -25.1%"}, {"smiles": "CN(Cc1ccco1)c1nc(-c2ccccc2C(F)(F)F)nc2ccccc12", "Potency": "active: 10 µM"}, {"smiles": "CC(C)Sc1oc(-c2ccco2)nc1S(=O)(=O)c1ccccc1", "Potency": "inconclusive [activator, full curve]"}, {"smiles": "CCOC(=O)C1=C(C)NC(=O)CC1c1cc2c(cc1Br)OCO2", "note": "(stereo not given)", "Potency": "inconclusive [activator, partial curve]"}, {"smiles": "CC1(C)C(=O)C(c2ccccc2)=C2CN3C(=O)N(CCc4ccccc4)C(=O)C3(Cc3ccc(F)cc3)C=C21", "note": "(stereo not given)", "activation": "inactive: 21.1%"}, {"smiles": "COCc1nnc(NC(=O)CC(C)c2ccccc2)s1", "note": "(stereo not given)", "Potency": "inconclusive [activator, partial curve, poor fit]"}, {"smiles": "O=C1C(=O)N(CCCn2ccnc2)C(c2cccnc2)/C1=C(/O)c1ccccc1", "note": "(stereo not given)", "Potency": "inconclusive [activator, partial curve]"}, {"smiles": "O=C1C=C[C@@H](O)[C@H]2[C@@H]3C(=O)N(Cc4ccccc4)C(=O)[C@@H]3CC[C@H]12", "activation": "inactive: -1.68% [at 11.4 µM]"}, {"smiles": "COc1cc(C(=O)Nc2ccccc2N2CCN(S(C)(=O)=O)CC2)cc(OC)c1OC", "Potency": "inconclusive [activator, single point]"}, {"smiles": "COc1ccc(C)cc1NC(=O)c1ccc2c(c1)OCO2", "Potency": "inconclusive [activator, partial curve]"}, {"smiles": "O=c1c(-c2ccc(Cl)cc2)nc2cnc(N3CCNCC3)nc2n1Cc1ccc(F)cc1", "activation": "inactive: -17.4%"}, {"smiles": "Cc1cccc(NC2(C(F)(F)F)N=C3SCCN3C2=O)n1", "note": "(stereo not given)", "activation": "inactive: 5.72%"}, {"smiles": "O=C(CN1C(=O)NC2(CCCC2)C1=O)Nc1cccc(-c2nnc3n2CCCCC3)c1", "Potency": "inconclusive [activator, single point]"}, {"smiles": "COc1cc(C2SCCCCCCCCCCSC(c3ccc(O)c(OC)c3)SCCCCCCCCCCS2)ccc1O", "note": "(stereo not given)", "activation": "inactive: 16.8% [at 11.4 µM]"}, {"smiles": "CCOc1ccc(NC(=O)CSc2nc3c(c(=O)n2C)SC(C)C3)cc1", "note": "(stereo not given)", "activation": "inactive: 21%"}, {"smiles": "O=C(CCc1ccc(CCC(=O)c2cccs2)s1)c1cccs1", "Potency": "inconclusive [activator, partial curve, poor fit]"}, {"smiles": "COc1cc(C(N)=O)cc(Br)c1OC", "Potency": "inconclusive [activator, single point]"}, {"smiles": "CCn1c(Cc2ccc(OC)cc2)nnc1SCC(=O)NC1CCCCC1", "Potency": "inconclusive [activator, single point]"}, {"smiles": "CCCCC(=O)Nc1ccccc1C#N", "Potency": "inconclusive [activator, full curve]"}, {"smiles": "CC(C)OC(=O)CN1CCN(C2c3ccccc3-c3ccccc32)CC1", "activation": "inactive: 19.4%"}, {"smiles": "CCN1CCN(c2nc(C)nc3c2sc(=S)n3C)CC1", "Potency": "inconclusive [activator, single point]"}, {"smiles": "CCN1CCN(Cc2ccc(NC(=O)Nc3ccccc3Cl)cc2)CC1", "activation": "inactive: 6.97%"}, {"smiles": "O=C(COC(=O)CSc1nnc(-c2ccc(Cl)cc2)o1)NCc1ccc2c(c1)OCO2", "activation": "inactive: 4.29%"}, {"smiles": "CCCOC(=O)c1ccc(OCC(O)Cn2c(C)nc3ccccc32)cc1", "note": "(stereo not given)", "Potency": "inconclusive [activator, partial curve]"}, {"smiles": "Cc1c(Br)cc(C(=O)NCCCN2CCOCC2)c(C)c1C", "Potency": "inconclusive [activator, single point]"}, {"smiles": "O=C(CSc1nnc(-c2ccccn2)n1Cc1ccco1)c1ccc(-c2ccccc2)cc1", "Potency": "inconclusive [activator, partial curve]"}, {"smiles": "N#CCCn1c(=O)c(CCc2ccccc2)nc2cnc(OCc3ccccc3)nc21", "Potency": "active: 3.98 µM"}, {"smiles": "CCOC(=O)CCC(=O)N1CCOCCN(C(=O)CCC(=O)OCC)CCOCC1", "Potency": "inconclusive [activator, single point]"}, {"smiles": "O=C(Cn1cnc2c(nnn2-c2ccccc2)c1=O)NCc1ccco1", "Potency": "inconclusive [activator, single point]"}, {"smiles": "Cc1ccc2c(c1)[C@H]1OCC[C@H]1[C@@H](c1ccncc1)N2", "activation": "inactive: -2.08%"}, {"smiles": "CCCCNC(=O)c1ccc2c(c1)N(CC)C(=O)c1ccccc1S2(=O)=O", "Potency": "inconclusive [activator, single point]"}, {"smiles": "c1ccc2oc(SCc3cn4ccccc4n3)nc2c1", "Potency": "inconclusive [activator, single point]"}, {"smiles": "CC1CCN(C(=O)Cn2c(=O)n(Cc3ccc4c(c3)OCO4)c(=O)c3ccccc32)CC1", "Potency": "inconclusive [activator, single point]"}, {"smiles": "COc1ccc2cc(CN(CCO)C(=O)c3ccc(Br)cc3)c(=O)[nH]c2c1", "Potency": "inconclusive [activator, single point]"}, {"smiles": "O=C1CC(c2cccs2)Sc2nc3ccccc3n21", "note": "(stereo not given)", "activation": "inactive: 24.7%"}, {"smiles": "Cc1ccccc1Nc1ncnc2c1cnn2-c1ccccc1", "Potency": "inconclusive [activator, single point]"}, {"smiles": "CS(=O)c1nc(-c2ccc(Br)cc2)cc(-c2ccccc2)c1C#N", "note": "(stereo not given)", "Potency": "inconclusive [activator, single point]"}, {"smiles": "COc1ccc(NC(=O)c2cc(Cl)ccc2NC(=O)c2ccco2)c(OC)c1", "Potency": "active: 25.1 µM"}, {"smiles": "O=C(CSc1ccccn1)Nc1ccccc1F", "activation": "inactive: 14.9%"}, {"smiles": "CC(C)[C@@H](CC(=O)N[C@@H]1CCCC[C@H]1C(=O)N[C@H](CC(=O)N[C@@H](CCC(=O)O)CC(=O)O)Cc1ccccc1)NC(=O)C[C@H](Cc1ccccc1)NC(=O)[C@@H]1CNCC[C@H]1N", "Potency": "inconclusive [activator, partial curve]"}, {"smiles": "Cc1cccc(NC(=O)NCC(c2cccnc2)N2CCOCC2)c1", "note": "(stereo not given)", "activation": "inactive: 6.28%"}, {"smiles": "COC(=O)C1CCN(C(c2cc(OC)c(OC)c(OC)c2)c2sc3nc(C)nn3c2O)CC1", "note": "(stereo not given)", "activation": "inactive: -4.88%"}, {"smiles": "N#CCCn1c(=O)c(-c2cccs2)nc2cnc(N3CCNCC3)nc21", "activation": "inactive: -2.41%"}, {"smiles": "Clc1ccc(Cc2nnc(-c3ccccc3Br)o2)cc1", "Potency": "inconclusive [activator, single point]"}, {"smiles": "Cc1nc2c(C(=O)N3CCCCC3)cnn2c(C)c1Cc1ccccc1F", "Potency": "inconclusive [activator, single point]"}, {"smiles": "COC(=O)c1ccccc1NC(=O)CN(C)S(=O)(=O)c1ccc(OC)c(C)c1", "Potency": "inconclusive [activator, partial curve]"}, {"smiles": "COC(=O)C1=C(C)OC(N)=C(C#N)C1c1ccccc1F", "note": "(stereo not given)", "Potency": "inconclusive [activator, partial curve]"}, {"smiles": "Cc1csc2nc(CNS(=O)(=O)c3ccc(-c4ccccc4)cc3)cn12", "Potency": "inconclusive [activator, single point]"}, {"smiles": "Cc1ccc(-n2nc3c(c2NC(=O)c2ccc(OC(C)C)cc2)CS(=O)C3)cc1", "note": "(stereo not given)", "Potency": "inconclusive [activator, single point]"}, {"smiles": "NCCSSCCN", "Potency": "inconclusive [activator, single point]"}, {"smiles": "Cc1ccc(S(=O)(=O)c2cccc(S(=O)(=O)N3CCCC3)c2)cc1S(=O)(=O)N1CCCC1", "Potency": "inconclusive [activator, partial curve]"}, {"smiles": "O=C(O)c1ccc(-c2ccco2)n1Cc1ccccc1", "Potency": "inconclusive [activator, partial curve]"}, {"smiles": "Brc1ccc(NCc2nnc3n2CCCCC3)cc1", "Potency": "inconclusive [activator, single point]"}, {"smiles": "c1ccc(CCc2ccccc2-c2nc(-c3ccccn3)no2)cc1", "Potency": "active: 25.1 µM"}, {"smiles": "Cc1cc2cc(CN(Cc3cccs3)Cc3nnnn3CC3CCCO3)c(=O)[nH]c2cc1C", "note": "(stereo not given)", "Potency": "inconclusive [activator, partial curve]"}, {"smiles": "COc1ccccc1CN(Cc1ccco1)S(=O)(=O)c1ccc(-n2cnnn2)c(OC)c1", "Potency": "inconclusive [activator, partial curve]"}, {"smiles": "COc1ccc(-c2cc(C(=O)N3CCN(C(c4ccccc4)c4ccccc4)CC3)no2)cc1OC", "Potency": "inconclusive [activator, full curve]"}, {"smiles": "CN(C)c1nc(-c2cccc(NS(C)(=O)=O)c2)nc2ccccc12", "Potency": "inconclusive [activator, partial curve, poor fit]"}, {"smiles": "COCCn1nnnc1C(c1ccccn1)N1CCN(c2cc(C)ccc2C)CC1", "note": "(stereo not given)", "Potency": "inconclusive [activator, partial curve]"}, {"smiles": "O=C(Nc1nccs1)c1c(O)c2cccc3c2n(c1=O)CCC3", "Potency": "active: 1.26 µM"}, {"smiles": "Cc1cc(=O)[nH]c(S/C=C/c2ccccc2)n1", "activation": "inactive: 24.4%"}, {"smiles": "COc1ccc2[nH]c(=O)c(CN(C(=O)C3CCCO3)c3ccc(C)cc3)cc2c1", "note": "(stereo not given)", "activation": "inactive: 7.91%"}, {"smiles": "CCn1c(SCc2c(F)cccc2Cl)nnc1-c1ccco1", "Potency": "inconclusive [activator, partial curve]"}]}]}
